In PubChem BioAssay AID463173 (ICCB-Longwood Screening Facility, Harvard Medical School, 2010) one finds survival data, which are given here for 89 compounds.

Screen size: about 52,000 compounds; about 4,300 (8.3%) were called active. Cut-off read from the data, not from the text of the source: active = survival mostly below about 52% (no sharp cut-off); inactive = mostly above about 56%. The list shows a part of the results.

This test relates to DeltatarO mutant. The test is described as follows: growth inhibition of S. aureus wild type versus tarO mutant, primary screen, teichoic acid synthesis inhibitors, RN4220, OD600 (AID 463173). Conditions: OD600, 18 h, active compounds read low, screened at 18.75 µg/mL (by protocol).
Consider `Cc1ccc(CNC(=O)CCCCCn2c(=O)[nH]c3ccccc3c2=O)cc1`, for which the survival was inactive: 124%.

As to `Cc1ccc(/C=C/c2onc(C)c2S(=O)(=O)N2CCC(C(=O)Nc3ccc(C)c(N(C)C)c3)CC2)cc1`, the survival was inactive: 100%. As for `Cc1ccc(C(=O)NC2CCSC2=O)cc1` (centres undefined), the survival was inactive: 100%. Under `Cc1c(Cl)cccc1NC(=O)CCN1CCC(C(N)=O)CC1` stands inactive: 97%; under `CC1CCCN(CCCNC(=O)c2ccc3c(c2)N(Cc2ccccc2F)C(=O)c2ccccc2S3(=O)=O)C1` (centres undefined), inactive: 179%; under `COc1ccccc1NC(=O)c1cc2c(n(-c3ccc(C)cc3)c1=O)CC(C)(C)CC2=O`, active: 45%. Under `CCCn1cnc2sc3c(c2c1=O)CCCC3` stands inactive: 102%; under `COc1ccc(CNC(=O)CSCc2ccc(C)cc2)c(OC)c1`, inactive: 55%; under `O=C(c1ccc2c(c1)N(Cc1cccc(Cl)c1)C(=O)c1ccccc1S2(=O)=O)N1CCN(Cc2ccccc2)CC1`, inactive: 92%. Turning to `CCc1cc2c(cc3c(=O)n(CC(=O)NC(C)C)nc(CC)n32)s1`, the survival was inactive: 75%.

For the compound `Cc1ccc(NS(=O)(=O)c2ccc(-c3cc(C)no3)cc2)c(C)c1`, the survival was inactive: 103%. As for `CC1(C)CC(n2c(=O)c3c(n4cnnc24)-c2ccccc2CC32CCCCC2)CCO1` (centres undefined), the survival was inactive: 52%. Under `CCC1CCCCN1CCCNC(=O)c1sc2nc(C)cc(C)c2c1-n1cccc1` (centres undefined) stands inactive: 92%; under `CCCN(CCC)CCCNC(=O)c1sc2nc3n(c(=O)c2c1C)CCC3`, inactive: 79%; under `Cc1ccccc1OCCSc1nnc(-c2ccc([N+](=O)[O-])cc2)o1`, inactive: 102%. Under `Oc1cccc(-c2nc(-c3cccs3)c(-c3cccs3)[nH]2)c1` stands active: 4%; under `COc1cccc(C(c2sc3nc(-c4ccco4)nn3c2O)N2CCC3(CC2)OCCO3)c1` (centres undefined), inactive: 67%; under `CCc1ccc(CNC(=O)c2ccc(-n3c(C)cc4c3CCC(C)C4)cc2)cc1` (centres undefined), inactive: 123%. Under `Cc1ccc(S(=O)(=O)Nc2ccc3c(c2)CCCN3C(=O)c2cccs2)cc1C` stands inactive: 70%; under `COc1cc(Br)c(C2CC(=O)Nc3cc4c(cc32)OCCO4)cc1OC` (centres undefined), inactive: 86%.

Turning to `CCc1ccc(NC(=O)c2ccc(F)c(S(=O)(=O)N3CCc4ccccc4C3)c2)cc1`, the survival is inactive: 79%. With `Cc1cccc(NC(=O)C(Cc2ccccc2)N2Cc3ccccc3C2=O)c1C` (centres undefined), the survival was inactive: 76%. Turning to `CCc1nn(CC(=O)NCCN(CC(C)C)CC(C)C)c(=O)c2cc3sc(C)cc3n12`, the survival was inactive: 68%.

On to `O=C(CSC1=NC(c2ccco2)CC(C(F)(F)F)N1)NCc1ccc(F)cc1` (centres undefined), for which the survival was inactive: 88%. Under `COc1ccc(CNC(=O)Cn2c(=O)n3nc(-c4cccc(F)c4)nc3c3ccccc32)cc1OC` stands inactive: 82%; under `CCN1CCCC1CNC(=O)Nc1c[nH]c2ccc(C)cc2c1=O` (centres undefined), inactive: 102%; under `COc1ccc(CNC(=O)C2=Cc3cccc(OC)c3OC2)cc1OC`, inactive: 93%. Under `O=C(Nc1ccc(F)cc1F)c1cc(CN2CCOCC2)on1` stands inactive: 92%. Under `CCc1cc(=O)oc2c(C)c3c(cc12)CN(CCc1ccccc1)CO3` stands inactive: 71%; under `COc1ccc(OC)c(NS(=O)(=O)c2ccc3c(c2)CCCN3C(=O)C2CCC2)c1`, inactive: 72%. For `Cc1cc(C(=O)NCc2ccc(C(=O)O)o2)c(C)o1`, the survival was active: 58%. As for `Cc1ccc(C2c3[nH]c4ccccc4c3CCN2C(=O)CSc2ccccc2)cc1` (centres undefined), the survival was inactive: 69%. As to `CCOC(=O)CSc1nc2c(C)ccc(C)c2cc1C#N`, the survival is inactive: 69%. In the case of `COc1ccc(-c2nc(CSc3nnc(C)n4c3cc3sccc34)c(C)o2)cc1`, the survival was inactive: 107%. Under `Oc1ccccc1-c1nc2ccc(Cl)cn2c1Nc1ccc2c(c1)OCCO2` stands inactive: 82%. Under `O=C(Nc1c(C(=O)N2CCN(c3ccccc3F)CC2)oc2ccccc12)c1ccc(Br)o1` stands inactive: 80%. `COc1ccc(-c2ccc(=O)n(CC(=O)Nc3ccccc3C(F)(F)F)n2)cc1`: the survival was inactive: 79%.

`CCS(=O)(=O)N1CCc2cc(C(=O)Nc3cccc(NC(C)=O)c3)ccc21`: the survival is active: 42%. Under `Cc1ccc(-n2c(-c3cccc(C)c3)nc3c(cnn3-c3ccccc3)c2=O)cc1` stands active: 19%. As for `O=S(=O)(c1ccc(F)cc1)N1CCCCC1`, the survival is inactive: 86%.

Take `Cn1c(=O)oc2cc(S(=O)(=O)N3CCCC(C(=O)N4CCN(c5ccc(F)cc5)CC4)C3)ccc21` (centres undefined): the survival was inactive: 92%. Under `CC(Oc1ccc(Br)cc1)C(=O)N(Cc1nc(-c2ccccc2)no1)C(C)C` (centres undefined) stands inactive: 97%; under `O=C(NCCCN1CCN(c2ccccc2)CC1)c1ccc2nc(CCc3ccccc3)oc2c1`, inactive: 73%.

Take `CCc1nn2c(=O)cc(COC(=O)c3ccccc3NC(=O)c3ccc(C(C)(C)C)cc3)nc2s1`: the survival is inactive: 91%. Under `O=C(O)C1CSC(c2cccs2)N1` (centres undefined) stands inactive: 83%; under `CN(CCCN1C(=O)c2ccccc2C1=O)CCCN1C(=O)c2ccccc2C1=O`, inactive: 93%. For the compound `Cc1cccc(N(CC(=O)NCCSc2ccc(Cl)cc2)S(C)(=O)=O)c1C`, the survival is active: 38%. Under `Cc1ccc(-c2c(C(=O)N(C)Cc3ccccc3)oc(=O)c3ccccc23)cc1` stands active: 24%. Under `COc1ccc(CSC(=N)N)cc1Cl` stands inactive: 97%. Under `Cc1nn2c(=O)cc(COC(=O)C(c3ccccc3)c3ccccc3)nc2s1` stands inactive: 90%; under `COc1ccc(CNC(=O)c2cc3c(=O)[nH]c4ccccc4c3n2C)c(OC)c1`, inactive: 68%; under `Cc1ccc2c(c1)N(C(=O)N1CCC(C(=O)NCc3cccs3)CC1)CC(C)O2` (centres undefined), inactive: 91%. As for `COc1ccc(Cl)cc1NC(=O)NCc1noc2ccccc12`, the survival was inactive: 35%.

Turning to `CC(NC(=O)CN1C(=O)COc2ccc(Cl)cc21)c1ccccc1` (centres undefined), the survival was inactive: 119%. Under `COc1ccc(CCNC(=O)CCCn2c(=O)c3ccccc3n(CC(=O)Nc3ccc(C)cc3Cl)c2=O)cc1OC` stands inactive: 87%; under `CCc1ccc2[nH]c(=O)c(CNCCO)cc2c1`, inactive: 78%. Under `COc1cccc(-c2cn3c(n2)sc2cc(C(=O)NCCC4=CCCCC4)ccc23)c1` stands inactive: 52%; under `O=C(CSc1oc(-c2ccc(F)cc2)nc1S(=O)(=O)c1ccc(Cl)cc1)c1ccccc1`, active: 45%; under `Cc1cccc(CCNC(=O)c2nn(C)c3c2CSc2ccccc2-3)c1`, inactive: 77%. Take `O=C(c1ccc2c(c1)N(Cc1cccc(Cl)c1)C(=O)c1ccccc1S2(=O)=O)N1CCCCCC1`: the survival was inactive: 69%. Under `Cc1ccc(NC(=O)C2CCN(C(=O)c3cnn(-c4ccccc4)c3-n3cccc3)CC2)cc1C` stands inactive: 65%; under `O=C(NCC(c1cccnc1)N1CCc2ccccc2C1)C(=O)Nc1ccc(F)cc1F` (centres undefined), inactive: 107%. Under `Cc1cccc(-c2nc(C)c(CCNC(=O)c3cccs3)s2)c1` stands inactive: 84%; under `O=C(CN1CCCN(Cc2cccc(F)c2)S1(=O)=O)Nc1ccc2c(c1)OCCO2`, inactive: 80%. With `CC(C)c1ccc(NC(=O)CCNS(=O)(=O)c2ccc3c(c2)oc(=O)n3C)cc1`, the survival was inactive: 88%. Take `C=C(C)Cn1c(SCC(=O)Nc2cccc(C)c2)nc2sc3c(c2c1=O)CCCC3`: the survival was inactive: 132%. Under `O=C(CCS(=O)(=O)c1nc(-c2ccc3c(c2)OCO3)cc(C(F)(F)F)n1)Nc1ccc(F)cc1F` stands inactive: 79%; under `COC(=O)c1nnn(-c2ccc(Cl)cc2)c1C(=O)OC`, inactive: 129%; under `Cc1ccc(-n2ncc(C(=O)N3CCN(C(=O)c4ccco4)CC3)c2C2CCN(C(=O)OC(C)(C)C)CC2)cc1`, inactive: 55%.

For the compound `CCS(=O)(=O)c1ncc(Cl)c(C(=O)Nc2c(C(=O)c3ccc(C)cc3)oc3ccccc23)n1`, the survival is active: 50%. Consider `CCN(CC)C(=O)C1CCN(c2cc(C)nc3c(-c4ccc(OC)c(OC)c4)c(C)nn23)CC1`, for which the survival is inactive: 79%. Regarding `Cn1c(C(=O)N2CCCC(C(=O)N3CCN(c4ccccc4)CC3)C2)cc2sccc21` (centres undefined), the survival is inactive: 89%. Under `CCc1ccc(NC(=O)CSc2cn(CC(=O)N3CCOCC3)c3ccccc23)cc1` stands inactive: 86%; under `CCCCNC(=O)CSC1=Nc2ccccc2C2=NC(CCC(=O)NCc3ccccc3OC)C(=O)N12` (centres undefined), active: 0%. Under `Clc1ncnc2sc3c(c12)CCCC3` stands inactive: 86%.

Regarding `CCOc1ccc(CN(C(=O)c2cc(=O)c3cc(Cl)ccc3o2)C2CCS(=O)(=O)C2)cc1` (centres undefined), the survival was inactive: 104%. With `CCCCOC(=O)c1c(C)oc2ccc(NS(=O)(=O)c3ccc(F)cc3C)cc12`, the survival was active: 10%. Under `CCc1ccc(CNc2ncnc3onc(-c4ccc(Cl)cc4)c23)cc1` stands inactive: 50%; under `COc1ccc(-c2cc(C(F)(F)F)n3nc(C(=O)Nc4sc5c(c4C(=O)OC(C)C)CCCC5)cc3n2)cc1OC`, inactive: 138%; under `COc1ccc(N2CCN(C(CNC(=O)c3cccc(OC)c3)c3cccnc3)CC2)cc1` (centres undefined), inactive: 71%. As for `Cc1cccc(OC(=O)c2nc(SCc3ccccc3F)ncc2Cl)c1`, the survival was inactive: 98%.

As to `Cc1ccc(Nc2nc3c(S(=O)(=O)c4ccccc4)nnn3c3ccc(Cl)cc23)c(C)c1`, the survival was inactive: 143%. Regarding `Cc1nc2ccn(Cc3cccs3)c(=O)c2cc1C(=O)NCc1ccc(Cl)cc1`, the survival was inactive: 49%. Under `COc1cc2nc(Nc3ccc(C)c(C)c3)nc(N)c2cc1OC` stands inactive: 76%; under `CC(CC(=O)NCc1ccc(Cl)cc1Cl)CC1=NS(=O)(=O)c2ccccc2N1` (centres undefined), inactive: 117%. With `COc1ccc(CCNC(=O)c2cc(=O)c3c(C)cc(C)cc3o2)cc1OC`, the survival was inactive: 57%. Under `COC(=O)c1ccc(NC(=O)C(=O)NCCc2sc3nc(-c4ccc(OC)cc4)nn3c2C)cc1` stands inactive: 83%; under `O=C(CCn1c(=O)c2cccn2c2cccnc21)NCc1ccc(Cl)cc1`, inactive: 77%. Under `COc1ccccc1NC(=O)C1=C(C)Nc2c(C(=O)Nc3cccc(C)c3)cnn2C1c1ccccc1C` (centres undefined) stands inactive: 89%.
